From PubChem BioAssay AID1745853 (National Center for Advancing Translational Sciences (NCATS), 2022)
“And” between values parts separate entries of the source, which are not always exact repeats. Equal values may be shown once. This is one part of the list. The main result of the screen is listed elsewhere. These columns were measured beside it and carry no call.

How the values were obtained:
Assay in all cases: Primary Screen for Target Class Profiling of Small Molecule Inhibitors of Methyltransferases
[1] = target: Glycine N-methyltransferase (Homo sapiens) (UniProt Q14749); conditions: purified enzyme, MTase-Glo SAH luminescence; measured here: GNMT inhibition; at 40 µM; stronger effect = lower value
Summary of the method: (§1)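 Each enzyme was reacted with SAM and its substrate, with compounds tested once at 40 uM; SAH formed was read by MTase-Glo luminescence.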

[2] = target: Guanidinoacetate N-methyltransferase (Homo sapiens) (UniProt Q14353); conditions: purified enzyme, MTase-Glo SAH luminescence; measured here: GAMT inhibition; at 40 µM; stronger effect = lower value
Summary of the method: as §1

[3] = target: Histamine N-methyltransferase (Homo sapiens) (UniProt P50135); conditions: purified enzyme, MTase-Glo SAH luminescence; measured here: HNMT inhibition; at 40 µM; stronger effect = lower value
Summary of the method: as §1

[4] = target: Nicotinamide N-methyltransferase (Homo sapiens) (UniProt P40261); conditions: purified enzyme, MTase-Glo SAH luminescence; measured here: NNMT inhibition; at 40 µM; stronger effect = lower value
Summary of the method: as §1

[5] = target: Phenylethanolamine N-methyltransferase (Homo sapiens) (UniProt P11086); conditions: purified enzyme, MTase-Glo SAH luminescence; measured here: PNMT inhibition; at 40 µM; stronger effect = lower value
Summary of the method: as §1
% is set by controls: 0 for no effect and ±100 for the full control effect.

Row | SMILES | activity change, negative = inhibition [1] [%] | activity change, negative = inhibition [2] | activity change, negative = inhibition [3] [%] | activity change, negative = inhibition [4] | activity change, negative = inhibition [5]
1 | CC(Cc1ccncc1)Nc1nccc(-c2cnn(-c3ccccc3)c2)n1 (stereo not given) | -33.7 | -9.9% | -21.1 | -20.9% | -4.36%
2 | O=C(Nc1ccc(N2C(=O)[C@@H]3[C@H](C2=O)[C@@H]2C=C[C@H]3C2)c(Cl)c1)c1ccccn1 | -8.83 | 0.766% | -6.03 | -21.6% | -15.9%
3 | CC(C)CCn1c(=O)c2ccc(C(=O)NCC(C)C)cc2n2c(=O)n(Cc3ccccc3Cl)nc12 | 6.64 | 0% | 6.62 | -0.024% | 3.68%
4 | CCCC(=O)NCCc1csc(-c2ccc(Cl)cc2)n1 | -11.9 | -5.64% | 4.42 | -20.7% | -10.1%
5 | COC(=O)c1ncn2c1C(=O)N(CCC1=CCCCC1)C(C)(C(=O)NC1CCCCCC1)C2 (stereo not given) | 1.28 | 5.52% | -1.33 | 0.635% | 2%
6 | O=C(Nc1ccccc1)N1CCN(c2nc(-c3ccccc3)ns2)CC1 | -3.22 | 1.7% | 11.1 | -15.6% | -1.73%
7 | COc1ccccc1CNC(=O)C1(C)Cn2nc(-c3ccccc3)cc2C(=O)N1c1ccc2c(c1)OCO2 (stereo not given) | 2.77 | 2.73% | 6.76 | -3.45% | 0.704%
8 | CC(C)CCn1c(=O)c2ccccc2n2c(CCC(=O)N3CCN(c4ccccc4F)CC3)nnc12 | -13.2 | 4.25% | -10.1 | -41% | -9.22%
9 | COC(=O)c1ncn2c1C(=O)N(CCCOC(C)C)C(C)(C(=O)NC1CCCCCC1)C2 (stereo not given) | 8.59 | 0% | 6.26 | 8.05% | 4.93%
10 | CCC(C)NC(=O)c1ccc2c(=O)n(C)c3nnc(SCC(=O)NC(C)C)n3c2c1 (stereo not given) | 3.04 | -4.92% | 7.55 | -0.739% | -4.63%
11 | Cn1nc(C(C)(C)C)cc1C(=O)N[C@@H](Cc1cccc(Cl)c1)C(=O)NCC#N | 6.76 | 8.46% and 3.93% | 9.18 | -5.21% and -12.9% | 5.18% and -0.158%
12 | CCC(C)NC(=O)c1ccc2c(=O)n(C)c3nnc(SCc4ccccc4C)n3c2c1 (stereo not given) | 6.88 | 4.03% | 6.3 | 4% | 4.04%
13 | CC(C)Cc1ccc(S(=O)(=O)NCCn2c(CCc3ccccc3)nc3ccccc32)cc1 | -2.47 | 0.007% | -6.89 | -6.85% | -1.97%
14 | CC(=O)Nc1ccc(Nc2nc3c(S(=O)(=O)c4cc(C)ccc4C)nnn3c3ccccc23)cc1 | -3.81 | 3.6% | -2.09 | 11.5% | -1.35%
15 | O=C(O)c1cccc(C(=O)CCC2OC(n3cnc4c(=O)[nH]cnc43)C(O)C2O)c1 (stereo not given) | -0.964 | 2.97% | 2.55 | -7.72% | 4.66%
16 | CC1CCCCC1NC(=O)C1(C)Cn2c(nc3ccccc32)C(=O)N1CCc1ccccc1 (stereo not given) | 3.47 | 0% | 6.28 | 2.91% | 1.25%
17 | O=C(O)c1cnc(-c2ccccc2)nc1-c1ccncc1 | -3.58 | -4.52% | -1.74 | -1.42% | -4.01%
